# Laboratory results from the supplement of paper PMC3334620.
# In all, about 33,000 sequences were measured (“E-score (-0.5 to 0.5)”: median about -0.011, highest 2% from about 0.28 on). Some of the results follow.
# Biological target: T1, Gcr1 (UniProt P07261)
# T1 sequence: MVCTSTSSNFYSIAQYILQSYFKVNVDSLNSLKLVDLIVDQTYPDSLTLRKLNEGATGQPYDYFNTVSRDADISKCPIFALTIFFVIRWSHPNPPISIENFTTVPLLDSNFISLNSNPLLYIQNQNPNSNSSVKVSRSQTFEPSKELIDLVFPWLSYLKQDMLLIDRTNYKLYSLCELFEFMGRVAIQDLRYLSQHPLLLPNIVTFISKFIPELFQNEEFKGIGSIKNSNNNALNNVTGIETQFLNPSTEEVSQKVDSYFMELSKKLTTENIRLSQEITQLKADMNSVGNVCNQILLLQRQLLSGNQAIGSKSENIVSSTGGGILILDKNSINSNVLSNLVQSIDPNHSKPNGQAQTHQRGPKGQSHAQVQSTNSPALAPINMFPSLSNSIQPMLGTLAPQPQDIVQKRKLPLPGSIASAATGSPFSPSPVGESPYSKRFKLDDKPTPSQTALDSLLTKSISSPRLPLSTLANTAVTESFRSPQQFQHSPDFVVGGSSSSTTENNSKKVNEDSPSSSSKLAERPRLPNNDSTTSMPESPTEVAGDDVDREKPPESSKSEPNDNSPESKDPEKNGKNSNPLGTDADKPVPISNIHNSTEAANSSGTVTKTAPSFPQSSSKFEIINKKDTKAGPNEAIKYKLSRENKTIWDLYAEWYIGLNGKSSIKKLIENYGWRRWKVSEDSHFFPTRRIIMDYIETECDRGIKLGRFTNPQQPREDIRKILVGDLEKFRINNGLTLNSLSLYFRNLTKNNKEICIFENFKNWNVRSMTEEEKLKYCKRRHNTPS
# Assay: PBM E-score (8-mer binding enrichment) (E-score (-0.5 to 0.5)); higher = stronger / more preferred TF binding; most listed sequences are background and not binding sites
# Conditions: protein concentration: 100 nM; construct: GST-full length
# Experimental: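 Universal 'all 10-mer' protein binding microarrays (Agilent AMADID 015681) probed with GST-tagged S. cerevisiae TFs (full-length or DBD) made by in vitro transcription/translation (PURExpress), about 100-200 nM. Bound TF was detected with fluorescent anti-GST. Each ungapped 8-mer (which stands for itself and its reverse complement) is scored by the PBM enrichment score (E-score), a modified Wilcoxon-Mann-Whitney statistic from -0.5 to +0.5, computed with the Universal PBM Analysis Suite. Scale: above 0.35 generally sequence-specific binding.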
row,Sequence,PBM E-score
1,AACTCCAG,-0.0562
2,CTGCTCAA,-0.00432
3,GGCAAGCA,-0.155
4,ACTGTGAC,-0.0646
5,AACCATAG,-0.00302
6,CATTCCAC,0.0952
7,CCGCGATC,-0.141
8,CTGGGACC,0.0278
9,ACACACGT,0.023
10,AGCAAAAA,0.126
11,TGGACTAA,-0.0217
12,AGTCCTAA,-0.0226
13,TAACACGA,0.0569
14,CTTAGTTA,0.0275
15,ACAGTCGG,-0.0818
16,GGATGACA,0.155
17,ATCCAAGG,-0.0791
18,AATTGAGT,0.0935
19,CGGTGCCC,0.231
20,AAAAAAGT,0.135
21,CTGTAACA,-0.0543
22,AAGGTCAT,-0.292

row,Sequence,PBM E-score
1,CCACATCA,0.127
2,ACTCTGTG,-0.0347
3,ACCCCTGA,0.0403
4,AACCCCGG,0.0409
5,ATGGATTC,0.272
6,TCACGGCA,0.014
7,CCGAGGCG,-0.0638
8,ACGTAATC,-0.147
9,CTTCCGTA,0.18
10,ACTATCGG,0.0484
11,CAATGTCA,-0.124
12,ATTGGACG,0.143
13,GTATATAA,-0.0455
14,AGAGAAAA,-0.0897
15,ACTTTGCC,-0.0796
16,AGTGACGG,0.0222
17,CACTACGG,0.0804
18,ACGACGGC,-0.239
19,ACATATAT,-0.132
20,TCCGATCA,0.0106
21,GTCAGTGA,-0.0527
22,AGCCAAGA,0.0162

row,Sequence,PBM E-score
1,CAGCTGCC,0.352
2,AGTGTTTA,0.0198
3,CCCTTTGC,-0.225
4,ATTTCGGC,0.141
5,ATGACTCG,-0.102
6,ACACGAGC,-0.148
7,GGATTGCC,-0.202
8,ATTTAAAT,0.27
9,AGATAAAG,0.0593
10,ACAATCCA,-0.0248
11,AACTTAGC,0.0498
12,CTAACGGC,0.0471
13,CGACGGGC,-0.162
14,CATTCGCG,0.0357
15,AATCGGGC,0.114
16,CAATTCAA,-0.0965
17,ACCTTAAT,-0.0158
18,CAAGCATG,-0.0982
19,CCGTATTC,-0.0504
20,AGCGGCCT,0.171
21,AGCTGACA,-0.238
22,CCTTTGCA,-0.0781

row,Sequence,PBM E-score
1,GCTAAGTA,0.00549
2,ACAAGGGA,-0.245
3,GCTGCGCA,0.0996
4,AGTTGTAG,0.212
5,ACGCTCGA,-0.117
6,ACGTCGGC,-0.155
7,CCTCCAAA,0.0892
8,GCGTCACA,-0.219
9,TAAACTGA,0.00509
10,CACACCGC,-0.0805
11,AACATAGG,0.111
12,AGTAAGAG,-0.0288
13,AAGTCCGG,-0.113
14,AAATCGGA,-0.00759
15,GTCATTGA,-0.16
16,GATTCTAA,0.0571
17,AAAGGCTA,-0.193
18,ACCTATTC,0.217
19,ACCGCACA,-0.0858
20,AGCAAGTC,-0.172
